Laboratory results as given in PubChem BioAssay AID686978 (National Center for Advancing Translational Sciences (NCATS), 2013).
Where “and” joins values, the source holds several entries; their conditions need not be identical. Equal entries are not always repeated. Screen size: about 420,000 compounds; about 64,000 (15%) were called active. The shares of active, inactive and inconclusive entries below differ from those in the screen. Calls come from the whole dose curve; as a rule, active = well fitted inhibition curve with a large enough effect; inconclusive = small, poorly fitted or top-dose-only effect; inactive = flat fitted curve, though single readings scatter. Potencies of inconclusive entries are left out as doubtful fits.

Assay: qHTS for Inhibitors of human tyrosyl-DNA phosphodiesterase 1 (TDP1): qHTS in cells in absence of CPT; note: nearly all actives have a fitted effect of over 55% in size
Conditions: DT40 Tdp1-/- hTDP1 cells, no CPT, ATP luminescence, 48 h; activity change, negative = growth inhibition: at 46.2 µM (top of the series) unless noted
Procedure, shortened: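 Cells were dispensed at 400 per well, compounds added by pin tool, plates incubated ≥48 hr at 37 °C, then CellTiter-Glo added for 30 min at room temperature before luminescence reading. Line: DT40 Tdp1-/- complemented with hTDP1; camptothecin omitted.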
% is set by controls: 0 for no effect and ±100 for the full control effect; potency is the fitted concentration of half-maximal effect; tags give direction and shape of the fitted curve.

SMILES | Potency | activity change, negative = growth inhibition
O=C(OCc1ccccc1)N1CCC2CC1c1cc(N3Cc4ccccc4-n4nncc4C3)ccc12 (stereo unspecified) | active: 5.8 µM | 
CCN(CC)c1ccc(CC2C(=O)N(C)C(=O)N(C)C2=O)cc1 | inconclusive [inhibitor, single point] | 
Cc1ccc(OCC(=O)N2CCN(Cc3cccnc3)CC2)cc1 | inactive | 
Cc1cc2nc3c(=O)[nH]c(=O)nc-3n(C[C@H](O)[C@H](O)[C@H](O)COP(=O)(O)OP(=O)(O)OC[C@H]3O[C@@H](n4cnc5c(N)ncnc54)[C@H](O)[C@@H]3O)c2cc1C | inconclusive [inhibitor, single point] | 
Cc1ccc(OP(=O)(NC(C)c2ccccc2)Oc2ccc(C)cc2)cc1 (stereo unspecified) | inconclusive [inhibitor, single point] | 
C[C@H]1O[C@@H](O[C@H]2[C@@H](O)C[C@H](O[C@H]3[C@@H](O)C[C@H](O[C@H]4CC[C@@]5(C)[C@H](CC[C@@H]6[C@@H]5CC[C@]5(C)[C@@H](C7=CC(=O)OC7)CC[C@]65O)C4)O[C@@H]3C)O[C@@H]2C)C[C@H](O)[C@@H]1O | active: 206 nM and active: 299 nM | 
O=C(c1ccc2c(c1)N(Cc1c(F)cccc1Cl)C(=O)c1ccccc1S2)N1CCC2(CC1)OCCO2 | active: 23.1 µM | 
Cc1ccc(CN2C3CCCC2CC(NC(=O)c2ccc(F)cc2)C3)cc1 (stereo unspecified) | inconclusive [inhibitor, single point] | 
Cc1cccc(N2CCN(Cc3ccc4c(c3)OCO4)CC2)c1C | inconclusive [inhibitor, single point] | 
N#C/C(=C\c1ccc(O)cc1)C(=O)O (tested in a mixture with another compound) | inconclusive [inhibitor, full curve, poor fit] | 
COc1ccc2c(c1O)-c1cccc3c1[C@@H](C2)N(C)CC3 | inconclusive [inhibitor, single point] | 
CCCCCn1c(=O)c(C(=O)NCc2ccncc2)c(O)c2ccccc21 | inconclusive [inhibitor, single point] | 
O=C(Nc1ccc(N2CCOCC2)cc1)C1CCN(S(=O)(=O)c2cccc(C(F)(F)F)c2)CC1 | inconclusive [inhibitor, single point] | 
O=C(CCS(=O)(=O)c1ccc(Cl)cc1)Nc1cccc(S(=O)(=O)N2CCCCCC2)c1 | inconclusive [inhibitor, single point] | 
Cc1nnc2n1-c1ccc(Cl)cc1C(c1ccccc1)=NC2 | inconclusive [inhibitor, single point] | 
O=C(O)[C@@H]1CSC(c2cccnc2)N1 (stereo partly specified) |  | inactive: -13.7% [at 9.04 µM]
CCCCOC1NC(=O)NC(=O)C1(F)C(=O)OCC (stereo unspecified) | inconclusive [inhibitor, single point] | 
CCCCn1nnnc1C(c1ccnc2ccccc12)N1CCC2(CC1)C(=O)NCN2c1ccccc1 (stereo unspecified) | inconclusive [inhibitor, single point] | 
CCC/C=C/C=C/C(=O)O[C@H]1/C(=C/C(=O)OC)C[C@H]2C[C@H]([C@@H](C)O)OC(=O)C[C@H](O)C[C@@H]3C[C@H](OC(C)=O)C(C)(C)[C@](O)(C[C@@H]4C/C(=C/C(=O)OC)C[C@H](/C=C/C(C)(C)[C@]1(O)O2)O4)O3 | inconclusive [inhibitor, full curve] | 
O=C(CN1CCCC1)c1ccccc1 | inconclusive [inhibitor, single point] | 
COc1ccc(-c2cc(C(=O)N3CCC4(CC3)OCCO4)c3ccccc3n2)cc1 | inconclusive [inhibitor, single point] | 

SMILES | Potency | activity change, negative = growth inhibition
Clc1cccc(Cl)c1Cl | inactive | 
COCCCNC(=O)Cn1cc(/C=C2\C(=O)NC(=O)N(c3ccccc3F)C2=O)c2ccccc21 | inconclusive [inhibitor, single point] | 
N#Cc1ccccc1OCC(=O)N1CCN(CC(=O)Nc2ccc(F)cc2)CC1 | inactive | 
Cc1ccccc1NC1(C#N)CCCCC1 | inactive | 
CC(=O)Nc1ccc(S(=O)(=O)N(C)CCOCc2ccccc2)cc1 | active: 18.4 µM | 
CN(C)CCN(CC1CCCN(Cc2ccccc2F)C1)C(=O)Cc1ccccc1F (stereo unspecified) | inconclusive [inhibitor, partial curve, poor fit] | 
CN(C)c1ccc(/C=C/[N+](=O)[O-])cc1 | active: 16.4 µM | 
COc1ccc(Cl)cc1NC(=O)CSc1ncnc2c1oc1ccccc12 | inconclusive [inhibitor, single point] | 
Cc1ccc(CN2CCCC(C(=O)c3cccc(C(F)(F)F)c3)C2)o1 (stereo unspecified) | inconclusive [inhibitor, single point] | 
CCN(CC)c1ccccc1 | inactive | 
O=c1c2ccccc2nc(-c2ccco2)n1-c1ccc(Br)cn1 | inconclusive [inhibitor, partial curve, poor fit] | 
CCC(COC(=O)NC)NC(=O)Oc1cccc(C)c1 (stereo unspecified) | inactive | 
CCOP(=S)(OCC)SCC(=O)NC(C(=O)O)C(C)C (stereo unspecified) | inactive | 
CCN(CC)c1ccc(/C=C2\C(=O)NC(=O)N(CC3CCCO3)C2=O)cc1 (stereo unspecified) | inactive | 
CCN(CC)C(=O)Oc1ccc(Br)cc1C(=O)Nc1ccc(F)c(Cl)c1 | inconclusive [inhibitor, single point] | 
C/C(CCc1c[nH]c2ccccc12)=N\O | inactive | 
CCCCOc1nc2ccccc2c(=O)n1-c1ccccc1 | inconclusive [inhibitor, partial curve] | 
COc1ccc(C(C)=O)cc1CC(C(=O)c1ccc(Br)cc1)N(C)C (stereo unspecified) | inconclusive [inhibitor, single point] | 
c1ccc(CN2CCCC3(CCNCC3)C2)cc1 | inconclusive [inhibitor, single point] | 
CCN(CC)c1ccc(N=Cc2c(O)n(-c3ccc(OC)cc3)c(=O)[nH]c2=O)cc1 | inconclusive [inhibitor, single point] | 
